{
  "source": "PubChem BioAssay AID1460",
  "about": "(National Center for Advancing Translational Sciences (NCATS), 2008)",
  "note": "Screen size: about 270,000 compounds; about 5,800 (2.1%) were called active. Inconclusive means that the source gave no clear call. Such entries were picked first, then a sample of the others. Calls follow the shape of the dose curve; as a rule, active = well fitted inhibition curve with a large enough effect; inconclusive = small, poorly fitted or top-dose-only effect; inactive = flat fitted curve, though single readings scatter. A potency beside an inconclusive call is a rough fit, not a confirmed value. Potency is read from the fitted curve at half-maximal effect; tags tell the direction and shape of the fitted curve.",
  "data": [
    {"molecular_target": "Microtubule-associated protein tau (Homo sapiens) (UniProt P10636)", "sequence (P10636 whole entry, looked up, the tested form may be a part)": "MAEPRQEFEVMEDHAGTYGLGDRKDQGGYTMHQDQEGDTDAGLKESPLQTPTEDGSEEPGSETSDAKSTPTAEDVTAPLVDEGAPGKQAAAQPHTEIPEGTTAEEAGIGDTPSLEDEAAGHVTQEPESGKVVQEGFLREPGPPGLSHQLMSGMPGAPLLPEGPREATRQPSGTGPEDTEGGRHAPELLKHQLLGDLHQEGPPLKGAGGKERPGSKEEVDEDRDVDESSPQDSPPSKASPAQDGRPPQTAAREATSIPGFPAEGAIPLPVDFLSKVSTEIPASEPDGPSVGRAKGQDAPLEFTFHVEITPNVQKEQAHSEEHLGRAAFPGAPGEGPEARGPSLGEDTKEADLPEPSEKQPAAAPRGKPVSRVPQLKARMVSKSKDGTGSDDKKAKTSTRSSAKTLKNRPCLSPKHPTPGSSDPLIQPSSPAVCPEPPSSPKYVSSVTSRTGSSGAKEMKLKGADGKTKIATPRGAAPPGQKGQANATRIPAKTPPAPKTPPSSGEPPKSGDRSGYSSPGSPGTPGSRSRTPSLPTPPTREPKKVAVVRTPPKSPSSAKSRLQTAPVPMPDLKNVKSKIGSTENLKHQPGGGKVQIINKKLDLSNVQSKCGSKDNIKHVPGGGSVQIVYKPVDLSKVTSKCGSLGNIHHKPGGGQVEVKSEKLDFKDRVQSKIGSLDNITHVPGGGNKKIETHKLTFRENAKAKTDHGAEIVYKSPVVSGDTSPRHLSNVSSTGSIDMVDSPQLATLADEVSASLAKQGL", "assay": "qHTS for Inhibitors of Tau Fibril Formation, Thioflavin T Binding; also: nearly all actives have a fitted effect of over 55% in size", "settings": "recombinant tau K18 P301L (four-repeat tau fragment), heparin-induced fibrillization, ThT fluorescence; series mostly up to 57.4 µM", "outline": "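In this qHTS, human K18 P301L tau is incubated with compound and heparin for 6 hr at 37 C, and Thioflavin T fluorescence then reports fibril load.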", "values": [
      {"molecule": "CC(=O)Nc1ccc2nc(SCC(=O)Nc3ccc(N4CCOCC4)c(Cl)c3)sc2c1", "Potency": "inconclusive: 39.8 µM [inhibitor, single point]"},
      {"molecule": "COc1ccc(C2=Nc3nc(-c4ccccc4)cn3C(c3ccc(OC)cc3)C2)cc1", "note": "(stereo not given)", "Potency": "inconclusive: 7.08 µM [inhibitor, partial curve]"},
      {"molecule": "O=C(CN(C1CCCCC1)S(=O)(=O)c1ccc(Cl)cc1)NCc1ccncc1", "Potency": "inactive"},
      {"molecule": "NC(=O)c1c(N)sc2c1CCCCC2", "Potency": "inconclusive: 28.2 µM [inhibitor, partial curve]"},
      {"molecule": "COC(=O)/C(=C1\\OC(=O)C(c2ccccc2)C1=O)c1ccccc1", "note": "(stereo not given)", "Potency": "inconclusive: 7.08 µM [inhibitor, partial curve]"},
      {"molecule": "COc1ccc(Cl)cc1NC(=O)c1sc2nc(-c3ccc(OC)c(OC)c3)ccc2c1N", "Potency": "inconclusive: 2.51 µM [inhibitor, full curve]"},
      {"molecule": "CCOC(=O)c1cc(CC)sc1NC(=O)Cc1ccccc1", "Potency": "inconclusive: 39.8 µM [inhibitor, partial curve]"},
      {"molecule": "CCCOc1ccc(/C=c2\\sc3nc(-c4ccco4)nn3c2=O)cc1OCC", "Potency": "inactive"},
      {"molecule": "N#CC1=C(N)Oc2c(ccc3ccccc23)C1c1cccs1", "note": "(stereo not given)", "Potency": "inconclusive: 28.2 µM [inhibitor, partial curve]"},
      {"molecule": "CCOc1ccc2nc(SCC(=O)c3cccs3)sc2c1", "Potency": "inconclusive: 2.24 µM [inhibitor, full curve]"},
      {"molecule": "COc1cc2ccc(=O)oc2c(O)c1OCC=C(C)C", "Potency": "inconclusive: 25.1 µM [inhibitor, single point]"},
      {"molecule": "O=C(NCc1cccnc1)c1c(O)c2cccc3c2n(c1=O)CCC3", "Potency": "inactive"},
      {"molecule": "Cc1cc(N2CCCCC2)ccc1[N+](=O)[O-]", "Potency": "inactive"},
      {"molecule": "CCOC(=O)C1C(=O)C=C(c2cccs2)CC1c1ccccc1C", "note": "(stereo not given)", "Potency": "inconclusive: 44.7 µM [inhibitor, single point]"},
      {"molecule": "COc1ccc(N2CCN(C(=O)CSc3ccc([N+](=O)[O-])cc3)CC2)cc1", "Potency": "inconclusive: 2 µM [inhibitor, full curve]"},
      {"molecule": "CCN(CC)c1ccc(/C=N/NS(=O)(=O)c2cccc([N+](=O)[O-])c2)cc1", "Potency": "inconclusive: 22.4 µM [inhibitor, partial curve]"},
      {"molecule": "Cc1ccc(-c2nnc(CSc3nc4cc5c(cc4cc3C)OCO5)o2)cc1", "Potency": "inactive"},
      {"molecule": "CCOC(=O)c1cnc(SC)nc1Sc1cc(Cl)ccc1Cl", "Potency": "inactive"},
      {"molecule": "Clc1ccc(N2CCN(/N=C/c3ccncc3)CC2)cc1", "Potency": "inconclusive: 3.55 µM [inhibitor, full curve]"},
      {"molecule": "CCC(=O)Nc1ccc2oc(-c3ccccc3Br)nc2c1", "Potency": "inconclusive: 15.8 µM [inhibitor, single point]"},
      {"molecule": "CCc1ccc(S(=O)(=O)c2nnn3c2nc(N2CCC(C(N)=O)CC2)c2cc(Cl)ccc23)cc1", "Potency": "inconclusive: 12.6 µM [inhibitor, partial curve]"},
      {"molecule": "Cc1ccccc1C(=O)Nc1cccc(C(=O)N/N=C/c2cc(Cl)cc([N+](=O)[O-])c2O)c1", "Potency": "active: 3.98 µM"},
      {"molecule": "CCCNC(=O)CN1C(=O)c2c(c3ccccc3n2C)C1c1ccc(OC)cc1", "note": "(stereo not given)", "Potency": "inactive"},
      {"molecule": "COc1ccc(-n2c(O)c(/C=N/NS(=O)(=O)c3ccc(C)cc3)c3ccccc3c2=O)cc1OC", "Potency": "inconclusive: 17.8 µM [inhibitor, partial curve]"},
      {"molecule": "O=S1(=O)N=C(Nc2ccc(N3CCOCC3)cc2)c2ccccc21", "Potency": "inconclusive: 15.8 µM [inhibitor, partial curve]"},
      {"molecule": "CN(C)/N=C/C=C1\\CC/C(=C\\c2ccc(Br)cc2)C1=O", "Potency": "active: 0.891 µM"},
      {"molecule": "CCCNC(=O)C1CCC(Cn2c(=O)c3sccc3n(CC(=O)N3CCCC3)c2=O)CC1", "note": "(stereo not given)", "Potency": "inactive"},
      {"molecule": "O=C(COc1ccc(Cl)cc1)Nc1ccc(-c2nc3cc(Cl)ccc3o2)c(O)c1", "Potency": "inconclusive: 31.6 µM [inhibitor, single point]"},
      {"molecule": "COC(=O)c1sc2cccc(F)c2c1S(=O)(=O)Nc1cc(C)c(Cl)cc1OC", "Potency": "inactive"},
      {"molecule": "O=C(O)c1c(C(=O)N2N=C3/C(=C/c4ccccc4)CCCC3C2c2ccccc2)cccc1[N+](=O)[O-]", "note": "(stereo not given)", "Potency": "inconclusive: 11.2 µM [inhibitor, partial curve]"},
      {"molecule": "O=C(Nc1ccc(Cl)c([N+](=O)[O-])c1)Nc1nc2ccccc2s1", "Potency": "inconclusive: 17.8 µM [inhibitor, partial curve]"},
      {"molecule": "CCc1ccc(N2C(=O)C(Cl)=C(N3CCOCC3)C2=O)cc1", "Potency": "inactive"},
      {"molecule": "Nc1ncc(N=Nc2cc(C(=O)O)ccc2Cl)s1", "Potency": "active: 14.1 µM"},
      {"molecule": "O/C(=C\\c1nc2ccccc2nc1/C=C(\\O)c1ccccc1)c1ccccc1", "Potency": "inconclusive: 6.31 µM [inhibitor, partial curve]"},
      {"molecule": "CN(C)c1ccc(-n2cccc2/C=C/[N+](=O)[O-])cc1", "Potency": "inconclusive: 25.1 µM [inhibitor, partial curve]"},
      {"molecule": "N#Cc1cc(C(=O)c2ccccc2O)cn(-c2nccs2)c1=O", "Potency": "inconclusive: 28.2 µM [inhibitor, single point]"},
      {"molecule": "CCN(CC)S(=O)(=O)c1nnc(NC(=O)c2ccc(C)cc2)s1", "Potency": "inconclusive: 7.94 µM [inhibitor, partial curve]"},
      {"molecule": "O=C(CSc1nccn1-c1ncc(C(F)(F)F)cc1Cl)c1ccc(Br)cc1", "Potency": "active: 14.1 µM"},
      {"molecule": "CCOC(=O)C1/C(=N\\O)CC(C)(O)C(C(=O)OCC)C1c1ccc(N(C)C)cc1", "note": "(stereo not given)", "Potency": "inconclusive: 31.6 µM [inhibitor, single point]"},
      {"molecule": "COc1ccc(S(=O)(=O)Nc2nnc(Cc3ccc(OC)c(OC)c3)s2)cc1", "Potency": "inactive"},
      {"molecule": "COC(=O)c1c(NC(=O)Cc2ccccc2)sc(C)c1C", "Potency": "inconclusive: 15.8 µM [inhibitor, partial curve]"},
      {"molecule": "CCC1OC(=O)C(C)[C@@H](O[C@H]2C[C@@](C)(OC)C(O)C(C)O2)C(C)[C@@H](O[C@@H]2OC(C)CC(N(C)C)C2O)[C@@](C)(O)CC(C)CN(C)C(C)C(O)[C@]1(C)O", "note": "(stereo not given in full)", "Potency": "inactive"},
      {"molecule": "Cc1cccc(CN2C(=O)c3ccccc3Sc3ccc(C(=O)NCCCN4CCOCC4)cc32)c1", "Potency": "inactive"},
      {"molecule": "COc1ccc(Cl)cc1C(=O)CSc1nc(N)cc(N)n1", "Potency": "inactive"},
      {"molecule": "COC(=O)N/N=C/c1cn(Cc2ccc(Cl)cc2Cl)c2ccccc12", "Potency": "inactive"}
    ]}
  ]
}
